B1: DOMAIN_2744 (protein, listed as Hylobates sp.)
chain: MAAGQREARPQVSLTFEDVAVLFTRDEWRKLAPSQRNLYRDVMLENYRNLVSLGLPFTKPKVISLLQQGEDPWKVEKDSSG
B2: DOMAIN_2255 (protein, listed as Pongo sp.)
chain: LAPDDHGSSYEGSVSFRDVAIDFSREEWRHLDPSQRNLYRDVMLETYSHLLSVGYQVPEAEVVMLEQGKEPWALQGERPRH
B3: DOMAIN_2470 (protein, listed as Pongo sp.)
chain: MNVEVVKVMPQDLVTFKDVAIDFSQEEWQWMNPAQKCLYRSMMLENYQSLVSLGLCISKPYVISLLEQGREPWEMTSEMTR
B4: DOMAIN_2223 (protein, listed as Pongo sp.)
chain: MAQGLVTFRDVAIEFSLEEWKCLEPAQRDLYREVTLENFGHLASLGLSISKPDVVSLLEQGKEPWMIANDVTGPWYPDLES
B5: DOMAIN_2891 (protein, listed as Hylobates sp.)
chain: MEPLKFRDVAIEFSLEEWQCLDSIQQNLYRNVMLENYRNLVFLGIAASKPDLIICLEQEKEPWSRKRRRMVAELPVICSHF
B6: DOMAIN_2888 (protein, listed as Hylobates sp.)
chain: MGLLTFRDVAIEFSLEEWQCLDTAQKNLYRNVMLENYRNLAFLGIAVSKPDLIICLEKEKEPWNMKRHEMVDEPPGLAVSN
B7: DOMAIN_2867 (protein, listed as Hylobates sp.)
chain: MALRSVMFSDVSIDFSPEEWEYLDLEQKDLYRDVMLENYSNLVSLGCFISKPDVISLLEQGKEPWKVVRKGRRQYPDLETR
B8: DOMAIN_2299 (protein, listed as Pongo sp.)
chain: EETQGELTSSCGSKTMANVSLAFRDVSIDLSQEEWECLDPVQRDLYKDVMLENYSNLVSLGYTIPKPDVITLLEQEKEPWI
B9: DOMAIN_2034 (protein, listed as Pongo sp.)
chain: MHLTAWPQKSVTFEDVAVYFTQAEWDGLSPAQRTLYRDVMLENYGNVASLGFPLLKPAVISQLEGGGELGGPSPLAAGRGL
B10: DOMAIN_2786 (protein, listed as Hylobates sp.)
chain: MAAAAALRAHAQSSVTFEDVAVNFSMEEWSLLNEAQRCLYRDVMLETLTLISSLGCWHGGEDEAAPSKQSTCIYIYKEQGG
B11: DOMAIN_2014 (protein, listed as Pongo sp.)
chain: APLLAPRPGETRPGCRKPGAVSFADVAVYFSPEEWGCLRPAQRALYRDVMRETYGHLGALGFPGPKPALISWMEQESEAWS
B12: DOMAIN_2576 (protein, listed as Pongo sp.)
chain: MAAVSPTTRCQESVTFEDVAVVFTDEEWSHLVPTQRDLYKEVMLENYNSIVSLGLPVPQPDVIFQLKRGDKPWMVDLHGSE
B13: DOMAIN_2208 (protein, listed as Pongo sp.)
chain: MSQVTFSDVAIDFSHEEWACLDSAQRDLYKDVMVQNYENLVSVGLSITKPYVIMLLEDGKEPWMMEKKLSKVYPFPLSHSV
B14: DOMAIN_2391 (protein, listed as Pongo sp.)
chain: MINAQELLTLEDVTVEFTWEEWQLLDPFQKDLYRDVTLEIYSNLVSMGYQVSKPDALSKLEQGEEPWTMEDERHSRICPGT
B15: DOMAIN_1964 (protein, listed as Pongo sp.)
chain: MTLLTFRDVAIEFSLEEWKCLDLAQQNLYRDVMLENYRNLFSIGLTVSKPGLITCLEQRKEPWNVKRQEAVDGHPGWCSGV
B16: DOMAIN_2229 (protein, listed as Pongo sp.)
chain: MAQESVMFSDVSVDFSQEEWECLNDDQRDLYRDVMLENYSNLVSMAGHSVSKPNVISYLEQGKEPWLVDRELTRGQWPVLE
B17: DOMAIN_2398 (protein, listed as Pongo sp.)
chain: EGEAQKRKAEESGMPLTQGHLTFRDVAIEFSQEEWKCLDPVQKALYRDVMLENYRNLVSLGICLPDLSIFSMMKQRTESWT
B18: DOMAIN_2806 (protein, listed as Hylobates sp.)
chain: MAAAALVNTPQGHVTFEDIAVYFSQEEWGLLDEAQRCLYHDVMLENFSLMASVGCLHGIEAEEAPSEQTVSAQGASQARTP
B19: DOMAIN_2295 (protein, listed as Pongo sp.)
chain: HRVGLIRSYNSKTMTCFQELVTFRDVAIDFSRQEWEYLDPNQRDLYRDVMLENYRNLVSLGGHSISKPVVVDLLERGKEPW
B20: DOMAIN_2851 (protein, listed as Hylobates sp.)
chain: MSLGSELFRDVAIVFSQEEWQWLAPAQRDLYRDVMLETYSNLVSLGLAISKPDVISFLEQGKEPWMVERVVSRGLCPVLES
B21: DOMAIN_2245 (protein, listed as Pongo sp.)
chain: MAHLMMFRDVAVDFSQEEWECLDLEQRDLYRDVMLENYSNMVSLGLCIYQPEAFSLLEKGKDPWKILRDETRRPCPDMQSR
B22: DOMAIN_2590 (protein, listed as Pongo sp.)
chain: MMTAVSLTTRPQESVAFEDVAVYFTTKEWAIMVPAERALYRDVMLENYEAVAFVVSPTSKPALVSHLEQGKESCFTRPQGV
B23: DOMAIN_2808 (protein, listed as Hylobates sp.)
chain: MAAAALRDPAQQGYVTFEDVAVYFSQEEWRLLDEAQKLLYRNVMLENFSLLASLGLASSKTHEITQLESWEEPFMPAWEVV
B24: DOMAIN_2813 (protein, listed as Hylobates sp.)
chain: MAAAALRDPAQQGYVTFEDVAVYFSQEEWRLLDEAQKLLYRNVMLENFSLLASLGLASSKTHEITQLESWEEPFMPAWEAV
B25: DOMAIN_2376 (protein, listed as Pongo sp.)
chain: MTKAQESLTLKDVAVDFTWEEWQLLGPAQKRLYRDVMLENYSNLVSVGYQASKPDALTKLEQGEPLWTLEDEIHSPAHPEI
B26: DOMAIN_10948 (protein, listed as Colobus angolensis)
chain: VQEPVTFKDVAVDFTQEEWGQLDLVQRTLYRDVMLETYGHLLSVGNQIAKPEVISLLEQGEEPWSVEQACPQHTCPEWMRN

tested on: HBEGF locus; assay type: cell-based, human; conditions: high-throughput screen of dXR repression of the HBEGF gene; change in abundance of each domain in the library before and after diphtheria toxin selection

In order of falling “Log2 (fold change)” value:
1. B9  3.7415
2. B20  3.3945
3. B17  3.3125
4. B26  3.2959
5. B19  3.2816
6. B21  3.2712
7. B2  3.1952
8. B12  3.1733
9. B18  3.1649
10. B7  3.0591
11. B24  2.9522
12. B16  2.9337
13. B1  2.863
14. B22  2.8348
15. B5  2.7489
16. B11  2.7323
17. B23  2.6227
18. B4  2.6106
19. B10  2.5449
20. B8  2.5125
21. B14  2.4608
22. B6  2.4267
23. B3  2.3815
24. B13  2.3044
25. B15  2.3009
26. B25  2.1539

— patent publication US12551573B2, “Compositions and methods for the targeting of PCSK9” (Scribe Therapeutics Inc., priority 2022, dated 2026)
